# Values joined by “and” are separate entries in the source; they are usually repeats but may differ in a detail not shown here. Equal entries are not always repeated. This list was built around the results that the source calls inconclusive (neither active nor inactive); the mix of calls is not that of the screen. For part of these data: A potency beside an inconclusive call is a rough fit, not a confirmed value. For part of these data: “Side channel” marks fits to a control or component signal instead of the main read-out. A structure can be active in one record and inactive in another. Active and inactive are the calls of the source. Unless noted, the call rests on the fitted dose curve; in most records, active means well fitted curve in the direction sought with a large enough effect; inconclusive means small, poorly fitted or top-dose-only effect, or another doubt; inactive means no such curve, though single readings can be large; an effect the other way counts as inactive or inconclusive.
# What was measured:
# [1] = Cell Viability - Hek293 (AID 427;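 active means compounds whose dose-response curve shows a full or clear partial loss of cell viability, called from curve shape rather than a numeric limit; inconclusive means weak partial curves or an effect only at the top dose; inactive means no dose-dependent loss of viability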;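 further: potency means the concentration at half of the fitted maximal effect; cells exposed to compound for 40 hours at 37 °C before reading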); conditions: qHTS
# Outline: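 Luminescent ATP content (CellTiter-Glo, 20 min at room temperature) was measured after a 40 hr, 37 °C compound exposure of HEK293 cells. AC50 values came from Hill-equation fits of qHTS concentration-response data normalized to DMSO and 100 uM tamoxifen.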
# [2] = Cell Viability - N2a (AID 540); conditions: N2a mouse neuroblastoma cell viability; at 92.2 µM (top of the series);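 further: plate controls were DMSO alone for no effect and tamoxifen control for full effect; nearly all actives have a fitted effect of over 45% in size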
# Outline: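 Mouse neuroblastoma N2a cells, 1500/well, exposed to compounds 40 h at 37 °C in complete medium. Viability measured as cellular ATP by CellTiter-Glo luminescence; AC50 from Hill fits of concentration-response.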
# [3] = Cell Viability - H-4-II-E (AID 543); further: potency means the concentration at half of the fitted maximal effect; nearly all actives have a fitted effect of over 35% in size
# Outline: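 Rat hepatoma H-4-II-E cells, 1500 per well, treated 40 h at 37 °C in complete medium. Cellular ATP read by CellTiter-Glo luminescence; AC50 from Hill fits of concentration-response.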
# [4] = Cell Viability - SH-SY5Y (AID 544); conditions: SH-SY5Y neuroblastoma cell viability; at 92.2 µM (top of the series);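 further: 0% = DMSO alone and -100% = 100 µM tamoxifen; nearly all actives have a fitted effect of over 55% in size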
# Outline: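 SH-SY5Y human neuroblastoma cells (1500/well) incubated 5 h, then compound-treated 40 h at 37 °C in complete medium. Viability read as intracellular ATP by CellTiter-Glo luminescence after 20 min; AC50 from Hill-equation fits of qHTS concentration-response.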
# [5] = Cell Viability - Renal Proximal Tubule (AID 545); conditions: renal proximal tubule cells viability, primary cells of rat origin; at 91.7 µM (top of the series);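 further: 0% = DMSO only and -100% = 100 µM tamoxifen; nearly all actives have a fitted effect of over 40% in size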
# Outline: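 In this qHTS format, normal rat kidney-derived proximal tubule cells in complete culture medium receive compound titrations, then sit 40 hours at 37 °C before luciferase-based ATP quantitation; potency is reported as AC50 from concentration-response curves.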
# [6] = Cellular Toxicity (caspase-3) Renal Proximal Tubule (AID 667); conditions: renal proximal tubule cells, primary cells freshly taken from rat; Potency: caspase-3 activation; caspase-3 activation: at 91.7 µM (top of the series), solvent-only wells 0%, staurosporine 100%;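 further: cells exposed to compound for 16 hours at 37 °C before detection; 0% = DMSO basal and 100% = 10 µM staurosporine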
# Outline: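 Caspase-Glo 3/7 read-out, rat primary kidney proximal tubule cells. Compound exposure 16 h, 37 °C; detection after 1 h at RT. Activity scaled to DMSO and 10 uM staurosporine.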
# [7] = MultiTox-Fluor Cytotoxicity Assay - LYMP1-002 - Dead Cells (AID 960);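 further: 0% = DMSO and 100% = tetraoctylammonium bromide; nearly all actives have a fitted effect of over 60% in size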
# Outline: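 Human lymphoblastoid LYMP1-002 cells, 2500/well, treated 16 h at 37 C; dead-cell protease cleavage of bis-AAF-R110 read by fluorescence (485/520); normalized to DMSO and 15 uM tetraoctylammonium bromide; AC50 from Hill fit.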
# [8] = Cell Viability - LYMP2-013 (AID 970); conditions: LYMP2-013 lymphoblastoid cells viability; at 92.2 µM (top of the series);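 further: cells exposed to compound for 24 h at 37 °C; 0% = DMSO only and full inhibition = tetraoctylammonium bromide control; nearly all actives have a fitted effect of over 55% in size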
# Outline: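 Human lymphoblastoid LYMP2-013 cells, 2500/well, treated 24 h at 37 C in complete medium; viability as intracellular ATP by CellTiter-Glo luminescence after 30 min. AC50 from Hill fits of qHTS concentration-response.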
# [9] = Cell Viability - LYMP1-002 - Assay at 40 hr (AID 994); further: nearly all actives have a fitted effect of over 60% in size; further: potency means the concentration at half of the fitted maximal effect;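 on viability change, negative = cytotoxic: 0% = DMSO only and full inhibition = 92 µM tetraoctylammonium bromide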
# Outline: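 LYMP1-002 human lymphoblastoid cells (2500/well, complete medium) were treated with compounds for 40 hr at 37 C. Intracellular ATP was measured by CellTiter-Glo luminescence, and AC50 values came from Hill-equation fits of concentration-response data; tetraoctylammonium bromide was the positive control.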
# [10] = qHTS Assay for Identification of Small Molecule Inducers of Hypoxia Response (AID 2120; active means well fitted curve in the direction sought with a large enough effect in the signal ratio, with a control signal flat, not every such curve was filed as active; inconclusive means small, poorly fitted or top-dose-only effect, or a change in a side signal; inactive means no such curve, though single readings can be large or run the other way; the % refers to the signal ratio; further: potency means the concentration at half of the fitted maximal effect); conditions: hypoxia response reporter cells, beta-lactamase ratio readout
# Outline: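 HRE-bla ME-180 cells in Opti-MEM with 0.5% dialyzed FBS, pre-plated 4-5 h, then compound titration for 17 h at 37 degrees Celsius. CCF4 loaded 2.5 h at room temperature; 460/530 nm ratio gave %Activity and AC50 for induction.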
# [11] = biological target: Bile acid receptor (Homo sapiens) (UniProt Q96RI1); experiment: qHTS assay for small molecule antagonists of farnesoid X receptor signaling (AID 588526; calls by dose curve; further: potency means the concentration at half of the fitted maximal effect); conditions: HEK293T FXR-UAS-bla, beta-lactamase ratio, antagonist mode; activity change, negative = inhibition: at 76.7 µM (top of the series)
# Outline: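 Antagonist mode: titrated compounds tested against chenodeoxycholic acid stimulation (normalized to 50 uM CDCA and DMSO) in GeneBLAzer HEK293T cells for 16 h. Beta-lactamase read by CCF4 fluorescence; IC50 from Hill fits.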
# [12] = biological target: Glucocorticoid receptor (Homo sapiens) (UniProt P04150); experiment: qHTS assay for small molecule agonists of glucocorticoid receptor signaling (AID 588532; active means well fitted curve in the direction sought with a large enough effect in the signal ratio, with a control signal flat; inconclusive means small, poorly fitted or top-dose-only effect, or a change in a side signal; inactive means no such curve, though single readings can be large or run the other way; the % refers to the signal ratio;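 further: 100% = dexamethasone at 0.1 µM and 0% = DMSO only wells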); conditions: HeLa MMTV-bla, beta-lactamase ratio, agonist, 18 h; activation: stronger effect = higher value, percent of dexamethasone control, DMSO zero
# Outline: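 MMTV-bla HeLa beta-lactamase reporter cells in 1% charcoal/dextran FBS medium, compounds up to 92 uM for 18 h at 37 C, CCF4 readout; normalized to 0.1 uM dexamethasone (100%), EC50 and efficacy from Hill fits.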
# [13] = biological target: Glucocorticoid receptor (Homo sapiens) (UniProt P04150); experiment: qHTS assay for small molecule antagonists of glucocorticoid receptor signaling (AID 588533; active means well fitted inhibition curve with a large enough effect in the signal ratio, with a control signal flat, not every such curve was filed as active; inconclusive means small, poorly fitted or top-dose-only effect, or effect the other way, or a change in a side signal; the % refers to the signal ratio;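 further: cells stimulated with 2 nM dexamethasone as agonist; potency means the concentration at half of the fitted maximal effect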); conditions: HeLa MMTV-bla, GRE beta-lactamase ratio, antagonist mode, 18 h; activity change, negative = inhibition: at 76.8 µM (top of the series)
# [14] = biological target: Vitamin D3 receptor (Homo sapiens) (UniProt P11473); experiment: qHTS assay for small molecule antagonists of vitamin D receptor signaling (AID 588541; calls by dose curve; further: potency means the concentration at half of the fitted maximal effect;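 on activity change, negative = inhibition: receptor activated by calcitriol during compound treatment; on the % scale 0 is the no-effect control and ±100 the full control effect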); conditions: HEK293T VDR-UAS-bla, beta-lactamase ratio, antagonist mode; activity change, negative = inhibition: at 76.7 µM (top of the series)
# [15] = biological target: Vitamin D3 receptor (Homo sapiens) (UniProt P11473); experiment: qHTS assay for small molecule agonists of vitamin D receptor signaling (AID 588543; calls by dose curve; further: potency means the concentration at half of the fitted maximal effect); conditions: HEK293T VDR-UAS-bla, beta-lactamase ratio, 16 h; activation: at 76.8 µM (top of the series)
# Outline: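 Measured: β-lactamase reporter activity (CCF4, 405 nm excitation, 460/530 nm emission) in HEK293T VDR-UAS-bla cells after 16 h compound exposure at 37 °C. Normalization against 50 nM 1α,25-dihydroxyvitamin D3 and DMSO; Hill-fit EC50.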
# [16] = biological target: Retinoic acid receptor RXR-alpha (Homo sapiens) (UniProt P19793); experiment: qHTS assay for small molecule antagonists of retinoid X receptor alpha signaling (AID 588546; active means well fitted inhibition curve with a large enough effect in the signal ratio, with a control signal flat, not every such curve was filed as active; inconclusive means small, poorly fitted or top-dose-only effect, or effect the other way, or a change in a side signal; inactive means no such curve, though single readings can be large or run the other way; the % refers to the signal ratio;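 further: cells stimulated with 9-cis-retinoic acid as agonist; on the % scale 0 is the no-effect control and ±100 the full control effect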); conditions: HEK293T RXRa-UAS-bla, beta-lactamase ratio, antagonist mode
# Outline: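 Beta-lactamase reporter inhibition, read as CCF4 fluorescence ratio (ex 405, em 460/530 nm) after 2 h at RT. HEK293T UAS-bla cells, 2500/well, were stimulated with 9-cis-RA at 500 or 100 nM final alongside test compound for 18 h at 37 C.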
# [17] = qHTS assay for small molecule agonists of the antioxidant response element (ARE) signaling pathway (AID 651741; active means well fitted activation curve with a large enough effect in the signal ratio; inconclusive means small, poorly fitted or top-dose-only effect, or effect the other way, or a change in a side signal; the % refers to the signal ratio; further: potency means the concentration at half of the fitted maximal effect); conditions: HepG2 ARE-bla reporter, beta-lactamase FRET ratio, 16 h; activation: at 96 µM (top of the series)
# Outline: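 CellSensor ARE-bla HepG2 cells (2,000/well) carrying ARE-driven beta-lactamase, exposed 16 h at 37 C. LiveBLAzer B/G FRET substrate added for 2 h at room temperature; fluorescence intensity read.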
# [18] = qHTS assay for small molecule activators of the p53 signaling pathway (AID 651743; active means well fitted activation curve with a large enough effect in the signal ratio, not every such curve was filed as active; inconclusive means small, poorly fitted or top-dose-only effect, or a change in a side signal; the % refers to the signal ratio; further: potency means the concentration at half of the fitted maximal effect); conditions: HCT-116 p53RE-bla, beta-lactamase FRET ratio, 16 h; activation: stronger effect = higher value
# Outline: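 p53RE-bla HCT-116 cells carrying a beta-lactamase reporter under p53 response elements were exposed to compounds for 16 hours at 37 C. Reporter activity read as fluorescence after 2 hours at room temperature with LiveBLAzer B/G FRET substrate.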
# [19] = qHTS assay for small molecule disruptors of the mitochondrial membrane potential - 5 hr assay (AID 651755; calls by dose curve; further: potency means the concentration at half of the fitted maximal effect; nearly all actives have a fitted effect of over 40% in size); conditions: JC-1-type ratio dye; ratio change, negative = disruption: at 92.2 µM (top of the series)
# Outline: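 HepG2 cells (2,000/well), attached overnight, exposed to compound 5 hr at 37C, then Mito-MPS dye 30 min. Fluorescence read for monomers (490/535 nm) and aggregates (540/590 nm).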
# [20] = biological target: Tumor necrosis factor (Homo sapiens) (UniProt P01375); experiment: qHTS assay to identify small molecules that stimulate Tumor Necrosis Factor-alpha (TNF-alpha) secretion (AID 651757; active means well fitted curve in the direction sought with a large enough effect in the signal ratio; inconclusive means small, poorly fitted or top-dose-only effect, or a change in a side signal; inactive means no such curve, though single readings can be large or run the other way; the % refers to the signal ratio; further: 0% is about no effect); conditions: Human cells, HTRF 665/615 ratio; activation (TNF-alpha secretion): at 92.2 µM (top of the series)
# Outline: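 THP-1 cells (3000/well) exposed to compounds 17 hrs at 37 C. Secreted TNF-alpha detected by HTRF with cryptate- and XL665-labeled anti-TNF-alpha antibodies after 3 hr at room temperature.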
# [21] = qHTS assay to identify small molecules that stimulate interleukin-8 (IL-8) secretion (AID 651758; active means well fitted activation curve with a large enough effect in the signal ratio; inconclusive means small, poorly fitted or top-dose-only effect, or effect the other way, or a change in a side signal; the % refers to the signal ratio; further: potency means the concentration at half of the fitted maximal effect; on activation: 0% is about no effect); conditions: HTRF ratio (665/615); activation: at 92.2 µM (top of the series)
# Outline: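 THP-1 cells (2000/well) exposed to compound 16 h at 37 C; secreted IL-8 then detected by HTRF with cryptate- and XL665-labelled anti-IL-8 antibody pair after 1-3 h at room temperature.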
# [22] = Confirmatory qHTS for small molecule stabilizers of the endoplasmic reticulum resident proteome: Secreted ER Calcium Modulated Protein (SERCaMP) assay (AID 1508628); further: nearly all actives have a fitted effect of over 40% in size; further: potency means the concentration at half of the fitted maximal effect
# Outline: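 SH-SY5Y cells stably expressing GLuc-SERCaMP, treated 16 h with compound (primary 1.53, 7.67, 38.3 uM; confirmation 11 concentrations, up to 76.6 uM), then 100 nM thapsigargin for 4 h. Secreted Gaussia luciferase in medium read by coelenterazine luminescence.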
# [23] = Cell Viability qHTS for small molecule stabilizers of the endoplasmic reticulum resident proteome (AID 1508629); conditions: cell viability counter-screen, 100 nM thapsigargin for final 4 h;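 further: potency means the concentration at half of the fitted maximal effect; compound exposure about 46 h in total before the viability read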
# Tags describe the fitted curve by direction and shape or compound fluorescence and quenching.
# Chain of UniProt P19793 (P19793 whole entry, looked up): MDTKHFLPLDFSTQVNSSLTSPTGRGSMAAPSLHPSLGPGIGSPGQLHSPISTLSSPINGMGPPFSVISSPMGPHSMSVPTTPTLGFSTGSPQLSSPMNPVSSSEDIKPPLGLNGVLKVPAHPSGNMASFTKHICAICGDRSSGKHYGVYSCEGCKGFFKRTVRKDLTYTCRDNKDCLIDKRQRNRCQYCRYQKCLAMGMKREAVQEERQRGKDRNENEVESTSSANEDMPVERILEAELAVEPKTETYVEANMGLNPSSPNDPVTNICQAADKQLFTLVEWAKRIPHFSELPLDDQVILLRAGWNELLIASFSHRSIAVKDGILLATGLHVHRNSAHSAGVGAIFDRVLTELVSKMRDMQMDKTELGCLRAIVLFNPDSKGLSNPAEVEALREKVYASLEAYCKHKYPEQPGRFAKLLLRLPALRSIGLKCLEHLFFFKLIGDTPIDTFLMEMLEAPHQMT
# Chain of UniProt P04150 (P04150 whole entry, looked up): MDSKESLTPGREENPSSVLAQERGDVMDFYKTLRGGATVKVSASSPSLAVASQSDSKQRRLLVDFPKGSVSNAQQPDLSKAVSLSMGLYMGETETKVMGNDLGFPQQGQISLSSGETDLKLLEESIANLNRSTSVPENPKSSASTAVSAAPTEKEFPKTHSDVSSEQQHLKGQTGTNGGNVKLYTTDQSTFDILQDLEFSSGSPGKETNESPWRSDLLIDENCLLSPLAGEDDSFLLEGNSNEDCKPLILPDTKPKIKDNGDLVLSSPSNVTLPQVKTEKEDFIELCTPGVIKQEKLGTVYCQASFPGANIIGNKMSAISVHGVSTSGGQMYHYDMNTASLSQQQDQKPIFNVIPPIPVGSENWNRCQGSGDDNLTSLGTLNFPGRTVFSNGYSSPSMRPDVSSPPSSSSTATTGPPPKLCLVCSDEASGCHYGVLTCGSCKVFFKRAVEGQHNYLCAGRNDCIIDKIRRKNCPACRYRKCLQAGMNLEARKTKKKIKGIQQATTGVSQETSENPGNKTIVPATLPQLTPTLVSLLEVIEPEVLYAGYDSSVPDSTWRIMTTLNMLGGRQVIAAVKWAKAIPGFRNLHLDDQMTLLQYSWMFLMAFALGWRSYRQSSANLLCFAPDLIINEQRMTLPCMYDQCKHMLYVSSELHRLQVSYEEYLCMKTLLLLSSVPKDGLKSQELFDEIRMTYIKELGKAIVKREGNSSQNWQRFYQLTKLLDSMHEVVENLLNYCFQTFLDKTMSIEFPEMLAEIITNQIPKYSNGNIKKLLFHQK
# Chain of UniProt Q96RI1 (Q96RI1 whole entry, looked up): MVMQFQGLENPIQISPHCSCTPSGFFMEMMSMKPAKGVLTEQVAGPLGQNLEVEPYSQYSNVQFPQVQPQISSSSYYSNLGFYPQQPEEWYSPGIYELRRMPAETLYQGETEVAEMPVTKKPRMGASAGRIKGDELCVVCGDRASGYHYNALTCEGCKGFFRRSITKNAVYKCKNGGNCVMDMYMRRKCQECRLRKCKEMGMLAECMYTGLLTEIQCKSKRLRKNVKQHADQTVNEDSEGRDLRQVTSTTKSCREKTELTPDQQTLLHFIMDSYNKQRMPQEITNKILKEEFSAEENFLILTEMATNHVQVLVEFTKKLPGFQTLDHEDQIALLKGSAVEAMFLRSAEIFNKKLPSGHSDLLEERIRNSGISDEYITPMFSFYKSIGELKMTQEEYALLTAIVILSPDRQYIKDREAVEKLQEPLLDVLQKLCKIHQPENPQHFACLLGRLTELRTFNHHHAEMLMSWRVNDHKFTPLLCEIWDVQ
# Chain of UniProt P01375 (P01375 whole entry, looked up): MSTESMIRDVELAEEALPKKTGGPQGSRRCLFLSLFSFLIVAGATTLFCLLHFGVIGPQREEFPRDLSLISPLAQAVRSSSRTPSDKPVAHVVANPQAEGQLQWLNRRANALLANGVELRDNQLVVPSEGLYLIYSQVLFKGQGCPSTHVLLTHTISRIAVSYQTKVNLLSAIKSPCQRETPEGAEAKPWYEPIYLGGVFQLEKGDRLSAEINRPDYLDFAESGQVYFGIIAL
smiles,measurement,setting,value
CC(C)(c1cc(Br)c(O)c(Br)c1)c1cc(Br)c(O)c(Br)c1,Potency,[1],inconclusive: 106 µM [single point]
same,"activity change, negative = cytotoxicity",[2],inconclusive: -44.1%
same,Potency,[3],"inconclusive: 79.4 µM [falling, single point]"
same,"viability change, negative = cytotoxic",[4],inconclusive: -93.8%
same,"activity change, negative = cytotoxicity",[5],inconclusive: -44.4%
same,caspase-3 activation,[6],inconclusive: 30.3%
same,Potency,[7],inactive
same,"activity change, negative = cytotoxic",[8],inactive: -0.981% and inactive: -6.5%
same,Potency,[9],"inactive and inconclusive: 79.4 µM [cytotoxic, single point]"
same,Potency,[10],"inconclusive: 50.1 µM [side channel, falling, partial curve] and inconclusive: 39.8 µM [side channel, falling, partial curve]"
same,Potency,[11],active: 28.2 µM
same,activation,[12],inactive: -10.8% and inactive: 25.4% and inactive: -11.2%
same,Potency,[13],active: 44.7 µM
same,Potency,[14],"inconclusive: 28.2 µM [side channel, rising, single point]"
same,"activity change, negative = inhibition",[14],inconclusive: -29.8%
same,Potency,[15],"inconclusive: 50.1 µM [activator, single point]"
same,max response,[16],inconclusive: -42.7% and inconclusive: -37.3% and inconclusive: -33.1%
same,Potency,[17],active: 29.8 µM and active: 23.7 µM and active: 48.6 µM
same,Potency,[18],active: 28.2 µM
same,Potency,[19],"inconclusive: 10 µM [side channel, rising, full curve] and inconclusive: 8.91 µM [side channel, rising, full curve]"
same,activation (TNF-alpha secretion),[20],inconclusive: 0.831%
same,Potency,[21],"inconclusive: 75 µM [activator, single point] and inactive"
same,Potency,[22],"inactive and inconclusive: 562 nM [inhibitor, full curve] and inconclusive: 100 nM [inhibitor, full curve, poor fit]"
same,Potency,[23],"inconclusive: 0.316 µM [rising, full curve, poor fit]"
